The record followed here is paper PMC4336329 (PLoS ONE, 2015).

Among all 310,000 compounds or so, about 14,000 (4.5%) showed an effect of 50% or more. Effects have a minus sign here. The list shows a part of the results.
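Note: peak tail current of the secondary pulse compared with the same well before compound.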

The target of this assay is human ether-à-go-go-related gene (hERG) potassium channel (human, UniProt Q12809). Briefly: primary screen, population patch clamp on CHO cells stably expressing hERG.
human ether-à-go-go-related gene (hERG) potassium channel, sequence (Q12809 whole entry, looked up): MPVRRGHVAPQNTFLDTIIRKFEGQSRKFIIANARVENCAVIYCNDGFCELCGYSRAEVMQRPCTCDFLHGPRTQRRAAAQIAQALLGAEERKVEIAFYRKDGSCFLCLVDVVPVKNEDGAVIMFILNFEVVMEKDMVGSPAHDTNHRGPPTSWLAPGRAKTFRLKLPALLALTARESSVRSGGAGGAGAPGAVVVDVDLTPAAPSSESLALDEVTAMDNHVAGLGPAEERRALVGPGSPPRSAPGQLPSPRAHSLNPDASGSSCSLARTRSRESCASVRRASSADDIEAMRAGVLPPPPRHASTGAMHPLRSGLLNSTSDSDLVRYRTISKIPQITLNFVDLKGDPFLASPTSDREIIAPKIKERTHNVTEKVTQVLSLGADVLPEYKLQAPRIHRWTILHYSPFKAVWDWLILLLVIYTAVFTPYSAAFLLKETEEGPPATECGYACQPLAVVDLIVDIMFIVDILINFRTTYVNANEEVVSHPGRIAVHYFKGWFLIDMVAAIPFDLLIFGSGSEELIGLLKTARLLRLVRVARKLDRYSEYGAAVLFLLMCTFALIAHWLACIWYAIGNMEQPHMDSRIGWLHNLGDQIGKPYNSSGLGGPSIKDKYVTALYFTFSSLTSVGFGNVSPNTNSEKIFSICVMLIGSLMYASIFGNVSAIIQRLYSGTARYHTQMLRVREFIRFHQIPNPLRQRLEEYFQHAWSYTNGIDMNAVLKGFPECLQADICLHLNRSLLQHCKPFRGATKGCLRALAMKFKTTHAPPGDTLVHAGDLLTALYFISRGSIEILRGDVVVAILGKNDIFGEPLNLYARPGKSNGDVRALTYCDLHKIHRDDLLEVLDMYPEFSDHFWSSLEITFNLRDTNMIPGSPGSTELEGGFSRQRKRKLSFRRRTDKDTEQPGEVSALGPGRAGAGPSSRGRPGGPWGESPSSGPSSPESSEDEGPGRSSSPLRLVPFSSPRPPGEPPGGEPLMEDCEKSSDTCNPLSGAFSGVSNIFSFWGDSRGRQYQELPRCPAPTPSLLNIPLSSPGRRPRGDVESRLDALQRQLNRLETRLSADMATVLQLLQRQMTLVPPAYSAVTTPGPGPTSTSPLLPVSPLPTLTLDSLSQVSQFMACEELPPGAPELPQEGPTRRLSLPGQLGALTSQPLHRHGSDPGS
Turning to `CCOc1cccc(NC(=O)CSc2nncn2N)c1`, the “hERG current change (%, negative = inhibition) at 10uM” value is on record as 8.81%.

With `CCOc1ccc(/C=N/NC(=O)c2cc(-c3ccccc3)nc3ccccc23)cc1O`, the “hERG current change (%, negative = inhibition) at 10uM” value is on record as -11.8%.

`COc1ccc(OCCOC(=O)CNC(=O)c2ccc(C)cc2)cc1`: the “hERG current change (%, negative = inhibition) at 10uM” value is recorded as -18.3%.

On to `CCOC(=O)N1CCN(CCC(=O)Nc2ccccc2)CC1`, for which the “hERG current change (%, negative = inhibition) at 10uM” value turned out to be 12.2%.

As for `CS(=O)(=O)N1CCC2(CC1)OCCN2S(=O)(=O)c1ccccc1`, the “hERG current change (%, negative = inhibition) at 10uM” value was -11.5%.

Regarding `Cl.O=C(CN1CCC(NC(=O)c2ccccc2Cl)CC1)NCc1ccco1`, the “hERG current change (%, negative = inhibition) at 10uM” value is listed as -2.98%.

In the case of `OC1(c2ccc(Cl)cc2)CCN(Cc2c[nH]c3ccccc23)CC1`, the “hERG current change (%, negative = inhibition) at 10uM” value is given as -63.7%.

As for `Cc1ccc(-c2nnn(CC(=O)NC3CCN(Cc4ccccc4)CC3)n2)cc1`, the “hERG current change (%, negative = inhibition) at 10uM” value was -20.3%.

With `COC(=O)c1c(NC(=O)C(=O)N2CCCCC2)sc2c1CC(C)(C)OC2`, the “hERG current change (%, negative = inhibition) at 10uM” value was 5.8%.

Consider `COc1ccc(-c2oc3ccc(N4CCOCC4)cc3c2C#CCO)cc1`, for which the “hERG current change (%, negative = inhibition) at 10uM” value is 8.03%.

Consider `COc1cc(OC)c2nc(C)c3c(c2c1)N(c1ccc(O)cc1)CC3`, for which the “hERG current change (%, negative = inhibition) at 10uM” value is reported as -72.1%.

Turning to `O=c1[nH]c(C2CCN(S(=O)(=O)c3ccc4c(c3)OCCO4)CC2)nc2c1nnn2Cc1ccc(F)cc1`, the “hERG current change (%, negative = inhibition) at 10uM” value is reported as -1.67%.

For the molecule `CC(C)CC(=O)Nc1ccc(C(=O)COC(=O)Cc2n[nH]c(=O)c3ccccc23)cc1`, the “hERG current change (%, negative = inhibition) at 10uM” value is -19.5%.

As for `CNC(=O)c1cn(-c2ccc(Cl)cc2)c(=O)c2ccccc12`, the “hERG current change (%, negative = inhibition) at 10uM” value was -9.43%.

On to `CCOc1ccccc1OCC(O)CNC` (stereo not drawn), for which the “hERG current change (%, negative = inhibition) at 10uM” value was -17.4%.

For `CC(C)N(CC(O)COc1ccc(CC(N)=O)cc1)CC(O)COc1ccc(CC(N)=O)cc1` (stereo not drawn), the “hERG current change (%, negative = inhibition) at 10uM” value worked out at 6.26%.

On to `Cc1cc(C)c(NC(=O)CSc2nc3ccc(NC(=O)CSc4nnnn4-c4ccccc4)cc3s2)c(C)c1`, for which the “hERG current change (%, negative = inhibition) at 10uM” value is reported as 6.8%.

As for `C=CCOc1c(Cl)cc(CNCCC)cc1Cl.Cl`, the “hERG current change (%, negative = inhibition) at 10uM” value is -4.42%.

Regarding `O=S(=O)(c1ccc(-c2csc(-c3cccnc3)n2)cc1)N1CCCCC1`, the “hERG current change (%, negative = inhibition) at 10uM” value is listed as -5.59%.

On to `Cc1cc(S(=O)(=O)Nc2ccc(C(=O)NCC(c3ccccc3)N(C)C)cc2)ccc1F` (stereo not drawn), for which the “hERG current change (%, negative = inhibition) at 10uM” value is reported as -47.9%.

For `CCn1c(=O)c2sccc2n(Cc2ccc(C)cc2)c1=O`, the “hERG current change (%, negative = inhibition) at 10uM” value is on record as 26%.

For `Cc1ccsc1CCNC(=O)C1CCC(=O)N(CCc2cccc(F)c2)C1` (stereo not drawn), the “hERG current change (%, negative = inhibition) at 10uM” value was -43.2%.

With `O=C(c1ccc(F)cc1F)N1CCN(c2ccccn2)CC1`, the “hERG current change (%, negative = inhibition) at 10uM” value worked out at 0.804%.

For the molecule `CCN(Cc1ccccc1)C(=O)CSc1ncn[nH]1`, the “hERG current change (%, negative = inhibition) at 10uM” value is reported as 28.8%.

For `O=S(=O)(N/N=C\c1c(F)cccc1Cl)c1ccc(Cl)cc1`, the “hERG current change (%, negative = inhibition) at 10uM” value was 1.36%.

With `Cc1cccc(Oc2nc3ccccn3c(=O)c2/C=C(\C#N)C(=O)NC2CCS(=O)(=O)C2)c1` (stereo not drawn), the “hERG current change (%, negative = inhibition) at 10uM” value is recorded as -2.33%.

Turning to `O=C(NC(C(=O)N/N=C/c1ccccn1)c1n[nH]c(=O)c2ccccc12)c1ccccc1` (stereo not drawn), the “hERG current change (%, negative = inhibition) at 10uM” value is -3.87%.

`CCn1c(SCC(=O)Nc2cccc(F)c2)nc2c(c1=O)SC(C)C2` (stereo not drawn): the “hERG current change (%, negative = inhibition) at 10uM” value was -37.2%.

With `COc1ccc(Cl)cc1NC(=O)c1ccco1`, the “hERG current change (%, negative = inhibition) at 10uM” value was -7.65%.

For `COc1ccccc1NC(=S)N(Cc1ccco1)Cc1cc2cc(C)c(C)cc2[nH]c1=O`, the “hERG current change (%, negative = inhibition) at 10uM” value is recorded as -12.6%.

Turning to `Cc1cc(C)c[n+](CC(=O)c2ccc(-c3ccccc3)cc2)c1.[Br-]`, the “hERG current change (%, negative = inhibition) at 10uM” value was -45.3%.

Regarding `CCn1c(C)csc1=NC(=O)c1ccccc1O`, the “hERG current change (%, negative = inhibition) at 10uM” value is on record as -21%.

Regarding `O=C1c2ccc3c4c(ccc(c24)C(=O)N1c1ccc2ccccc2c1)CC3`, the “hERG current change (%, negative = inhibition) at 10uM” value was 11.6%.

Regarding `O=C(c1ccc(Cl)c(NC2=NC3CS(=O)(=O)CC3S2)c1)N1CCN(c2ccccc2)CC1` (stereo not drawn), the “hERG current change (%, negative = inhibition) at 10uM” value is on record as 10.8%.

With `COc1ccc(CNC(=O)CN(Cc2ccc(OC)cc2)C(=O)c2csnn2)cc1`, the “hERG current change (%, negative = inhibition) at 10uM” value is on record as -57.5%.

Regarding `CCOc1cccc(=O)c2c(C)n(CC(=O)c3ccccc3)c(C)c12`, the “hERG current change (%, negative = inhibition) at 10uM” value is listed as -6.91%.

As to `O=C1C2CCN(CC2)C1Cc1ccccc1O` (stereo not drawn), the “hERG current change (%, negative = inhibition) at 10uM” value was 8.93%.

For `CCC(C)(CC(=O)Nc1nccs1)c1ccccc1` (stereo not drawn), the “hERG current change (%, negative = inhibition) at 10uM” value is 7.66%.

For `COc1cc2sc(C)nc2c2ccccc12`, the “hERG current change (%, negative = inhibition) at 10uM” value is on record as 12.5%.

On to `COc1cc(C)ccc1OCc1cc(C(=O)N2C[C@H]3CC[C@H]2C3)no1`, for which the “hERG current change (%, negative = inhibition) at 10uM” value is listed as -1.23%.

For the molecule `CC1CC(OCC(O)C[N+]2(C)CCOCC2)CC(C)(C)C1.[I-]` (stereo not drawn), the “hERG current change (%, negative = inhibition) at 10uM” value was 22.6%.

`CC(=O)c1ccc(NC(=O)CCn2c(=O)oc3ccccc32)cc1`: the “hERG current change (%, negative = inhibition) at 10uM” value was 12.9%.

`C=CCn1c(SCC(=O)NC2(C#N)CCCCC2)nnc1-c1ccncc1`: the “hERG current change (%, negative = inhibition) at 10uM” value turned out to be 13.8%.

Consider `COc1ccc(NC(=O)CSc2nnnn2Cc2ccccc2)cc1`, for which the “hERG current change (%, negative = inhibition) at 10uM” value was found to be 12.2%.

On to `CCOc1ccc(NC(=O)CN(C)C(=O)c2cc([N+](=O)[O-])ccc2N2CCCCC2)cc1OCC`, for which the “hERG current change (%, negative = inhibition) at 10uM” value was -43.9%.
